Results published in article PMC6639074.
These are yes or no findings as the source states them, for the method shown. For some assays here: Binding seen in cells or lysates may run through a third protein. Some results given as binding are weak or reduced against the parent protein; the word gives no strength. For some assays here: Sequences can lack the tags named with a protein. Blank lines part the entries; values can stand above or below the binder they belong to.

Chains of the proteins cited; added tags and fusions are not shown. Lines headed by an entry give the natural chain unless they say otherwise; changes in a name come on top.
UniProt P20339: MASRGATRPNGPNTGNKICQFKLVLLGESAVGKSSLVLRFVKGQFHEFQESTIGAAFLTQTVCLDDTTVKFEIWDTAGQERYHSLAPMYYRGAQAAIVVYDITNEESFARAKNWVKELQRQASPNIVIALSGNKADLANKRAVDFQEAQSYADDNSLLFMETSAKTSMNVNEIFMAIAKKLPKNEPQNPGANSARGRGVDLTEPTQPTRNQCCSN
UniProt P61019: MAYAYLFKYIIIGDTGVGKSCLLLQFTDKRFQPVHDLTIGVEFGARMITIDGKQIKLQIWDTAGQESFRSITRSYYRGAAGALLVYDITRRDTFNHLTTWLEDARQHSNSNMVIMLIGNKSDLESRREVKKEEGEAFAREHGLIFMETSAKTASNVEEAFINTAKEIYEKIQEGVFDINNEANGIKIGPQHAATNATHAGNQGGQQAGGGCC

How the values were obtained:
[1] = molecular target: GST-Rab5A(Q79L) (human) (UniProt P20339); experiment: pull-down; GST-Rab on glutathione Sepharose beads with GppNHp or GDP (100 uM), lysate of HEK293T cells (HeLa in the legend of Figure 7E), untransfected or expressing FLAG-HPS3; 1% Triton X-100, high salt elution, immunoblot; only the target purified
[2] = molecular target: T1, Rab9A(Q66L)-BirA*-HA-MAO (human) (UniProt P51151); experiment: relocation to mitochondria (confocal microscopy); tagged protein co-expressed in cells (MEFs, HeLa) with the mitochondrial GTPase-BirA* chimera; relocation of the tagged protein to mitochondria
T1 sequence: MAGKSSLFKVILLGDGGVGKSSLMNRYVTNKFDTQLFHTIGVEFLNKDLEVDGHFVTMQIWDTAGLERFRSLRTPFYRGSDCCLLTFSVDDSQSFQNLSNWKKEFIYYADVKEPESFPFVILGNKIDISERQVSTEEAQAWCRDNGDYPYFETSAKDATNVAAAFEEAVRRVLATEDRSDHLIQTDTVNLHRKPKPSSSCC

[3] = molecular target: T2, Rab9A(S21N)-BirA*-HA-MAO (human) (UniProt P51151); experiment: as above
T2 sequence: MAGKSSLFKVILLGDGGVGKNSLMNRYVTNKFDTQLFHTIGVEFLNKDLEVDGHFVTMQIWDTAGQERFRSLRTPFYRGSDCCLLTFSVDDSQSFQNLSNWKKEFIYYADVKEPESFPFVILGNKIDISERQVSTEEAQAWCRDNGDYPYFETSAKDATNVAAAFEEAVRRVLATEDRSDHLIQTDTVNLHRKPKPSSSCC

[4] = molecular target: T3, GST-Rab9A(Q66L) (human) (UniProt P51151); experiment: pull-down; GST-Rab on glutathione Sepharose beads with GppNHp or GDP (100 uM), lysate of HEK293T cells (HeLa in the legend of Figure 7E), untransfected or expressing FLAG-HPS3; 1% Triton X-100, high salt elution, immunoblot; only the target purified
T3 sequence: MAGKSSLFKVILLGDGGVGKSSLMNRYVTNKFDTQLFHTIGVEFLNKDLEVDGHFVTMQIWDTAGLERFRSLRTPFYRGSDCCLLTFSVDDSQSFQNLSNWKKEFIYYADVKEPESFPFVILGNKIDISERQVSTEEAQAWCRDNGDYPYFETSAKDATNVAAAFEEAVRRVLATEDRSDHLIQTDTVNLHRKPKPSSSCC

[5] = molecular target: GST-Rab2A(Q65L) (human) (UniProt P61019); experiment: as above
[6] = molecular target: Rab2A(Q65L)-BirA*-HA-MAO (human) (UniProt P61019); experiment: relocation to mitochondria (confocal microscopy); tagged protein co-expressed in cells (MEFs, HeLa) with the mitochondrial GTPase-BirA* chimera; relocation of the tagged protein to mitochondria
[7] = molecular target: T3, GST-Rab9A(Q66L) (human); experiment: pull-down; GST-Rab9A beads, pre-cleared lysate of E. coli expressing His6-NDE1, 2 hr 4 C, Coomassie gel and anti-His6 immunoblot; only the target purified

B3: FLAG-HPS3 (protein, UniProt Q969F9 1-1004)
chain: MVQLYNLHPFGSQQVVPCKLEPDRFCGGGRDALFVAAGCKVEAFAVAGQELCQPRCAFSTLGRVLRLAYSEAGDYLVAIEEKNKATFLRAYVNWRNKRTENSRVCIRMIGHNVEGPFSKAFRDQMYIIEMPLSEAPLCISCCPVKGDLLVGCTNKLVLFSLKYQIINEEFSLLDFERSLIIHIDNITPVEVSFCVGYVAVMSDLEVLIVKLESGPKNGERVHHHPHKTNNRIRRTEEGISNEISQLESDDFVICQKPLELLGEKSEQSGLSVTLESTGLADEKRKYSHFQHLLYRRFAPDISSYVLSDDIKLHSLQLLPIYQTGSLTSDGKNLSQEKELLSLFCFFSLPHVGYLYMVVKSVELMSVYQYPEKSQQAVLTPQFLHVITSNNLQCFTVRCSAAAAREEDPYMDTTLKACPPVSMDVCALRIQLFIGLKAICHFKNHIILLTKAEPEAIPERRQSPKRLLSRKDTSVKIKIPPVAEAGWNLYIVNTISPVQLYKEMVDYSNTYKTVKTQSCIHLLSEAHLLVRAALMDASQLEPGEKAELLEAFKESCGHLGDCYSRLDSQHSHLTLPYYKMSGLSMAEVLARTDWTVEDGLQKYERGLIFYINHSLYENLDEELNEELAAKVVQMFYVAEPKQVPHILCSPSMKNINPLTAMSYLRKLDTSGFSSILVTLTKAAVALKMGDLDMHRNEMKSHSEMKLVCGFILEPRLLIQQRKGQIVPTELALHLKETQPGLLVASVLGLQKNNKIGIEEADSFFKVLCAKDEDTIPQLLVDFWEAQLVACLPDVVLQELFFKLTSQYIWRLSKRQPPDTTPLRTSEDLINACSHYGLIYPWVHVVISSDSLADKNYTEDLSKLQSLICGPSFDIASIIPFLEPLSEDTIAGLSVHVLCRTRLKEYEQCIDILLERCPEAVIPYANHELKEENRTLWWKKLLPELCQRIKCGGEKYQLYLSSLKETLSIVAVELELKDFMNVLPEDGTATFFLPYLLYCSRKKPLT
binding [2]: binds
binding [3]: no binding
binding [4]: binds

B5: GFP-FLAG-STAMBPL1 (protein, UniProt Q96FJ0 1-436)
chain: MDQPFTVNSLKKLAAMPDHTDVSLSPEERVRALSKLGCNITISEDITPRRYFRSGVEMERMASVYLEEGNLENAFVLYNKFITLFVEKLPNHRDYQQCAVPEKQDIMKKLKEIAFPRTDELKNDLLKKYNVEYQEYLQSKNKYKAEILKKLEHQRLIEAERKRIAQMRQQQLESEQFLFFEDQLKKQELARGQMRSQQTSGLSEQIDGSALSCFSTHQNNSLLNVFADQPNKSDATNYASHSPPVNRALTPAATLSAVQNLVVEGLRCVVLPEDLCHKFLQLAESNTVRGIETCGILCGKLTHNEFTITHVIVPKQSAGPDYCDMENVEELFNVQDQHDLLTLGWIHTHPTQTAFLSSVDLHTHCSYQLMLPEAIAIVCSPKHKDTGIFRLTNAGMLEVSACKKKGFHPHTKEPRLFSICKHVLVKDIKIIVLDLR
binding [6]: binds

B6: His6-Nde1 (protein, UniProt Q9NXR1 1-335)
chain: MEDSGKTFSSEEEEANYWKDLAMTYKQRAENTQEELREFQEGSREYEAELETQLQQIETRNRDLLSENNRLRMELETIKEKFEVQHSEGYRQISALEDDLAQTKAIKDQLQKYIRELEQANDDLERAKRATIMSLEDFEQRLNQAIERNAFLESELDEKENLLESVQRLKDEARDLRQELAVQQKQEKPRTPMPSSVEAERTDTAVQATGSVPSTPIAHRGPSSSLNTPGSFRRGLDDSTGGTPLTPAARISALNIVGDLLRKVGALESKLASCRNLVYDQSPNRTGGPASGRSSKNRDGGERRPSSTSVPLGDKGLDTSCRWLSKSTTRSSSSC
binding [7]: binds

Continued, values first:

binding [1]: binds
B1: RELCH/KIAA1468 (protein, UniProt Q9P260 1-1216)
chain: MAAMAPGGSGSGGGVNPFLSDSDEDDDEVAATEERRAVLRLGAGSGLDPGSAGSLSPQDPVALGSSARPGLPGEASAAAVALGGTGETPARLSIDAIAAQLLRDQYLLTALELHTELLESGRELPRLRDYFSNPGNFERQSGTPPGMGAPGVPGAAGVGGAGGREPSTASGGGQLNRAGSISTLDSLDFARYSDDGNRETDEKVAVLEFELRKAKETIQALRANLTKAAEHEVPLQERKNYKSSPEIQEPIKPLEKRALNFLVNEFLLKNNYKLTSITFSDENDDQDFELWDDVGLNIPKPPDLLQLYRDFGNHQVTGKDLVDVASGVEEDELEALTPIISNLPPTLETPQPAENSMLVQKLEDKISLLNSEKWSLMEQIRRLKSEMDFLKNEHFAIPAVCDSVQPPLDQLPHKDSEDSGQHPDVNSSDKGKNTDIHLSISDEADSTIPKENSPNSFPRREREGMPPSSLSSKKTVHFDKPNRKLSPAFHQALLSFCRMSADSRLGYEVSRIADSEKSVMLMLGRCLPHIVPNVLLAKREELIPLILCTACLHPEPKERDQLLHILFNLIKRPDDEQRQMILTGCVAFARHVGPTRVEAELLPQCWEQINHKYPERRLLVAESCGALAPYLPKEIRSSLVLSMLQQMLMEDKADLVREAVIKSLGIIMGYIDDPDKYHQGFELLLSALGDPSERVVSATHQVFLPAYAAWTTELGNLQSHLILTLLNKIEKLLREGEHGLDEHKLHMYLSALQSLIPSLFALVLQNAPFSSKAKLHGEVPQIEVTRFPRPMSPLQDVSTIIGSREQLAVLLQLYDYQLEQEGTTGWESLLWVVNQLLPQLIEIVGKINVTSTACVHEFSRFFWRLCRTFGKIFTNTKVKPQFQEILRLSEENIDSSAGNGVLTKATVPIYATGVLTCYIQEEDRKLLVGFLEDVMTLLSLSHAPLDSLKASFVELGANPAYHELLLTVLWYGVVHTSALVRCTAARMFELTLRGMSEALVDKRVAPALVTLSSDPEFSVRIATIPAFGTIMETVIQRELLERVKMQLASFLEDPQYQDQHSLHTEIIKTFGRVGPNAEPRFRDEFVIPHLHKLALVNNLQIVDSKRLDIATHLFEAYSALSCCFISEDLMVNHFLPGLRCLRTDMEHLSPEHEVILSSMIKECEQKVENKTVQEPQGSMSIAASLVSEDTKTKFLNKMGQLTTSGAMLANVFQRKK

binding [1]: binds
B2: OSBPL9 (protein, UniProt Q96SU4 1-736)
chain: MASIMEGPLSKWTNVMKGWQYRWFVLDYNAGLLSYYTSKDKMMRGSRRGCVRLRGAVIGIDDEDDSTFTITVDQKTFHFQARDADEREKWIHALEETILRHTLQLQGLDSGFVPSVQDFDKKLTEADAYLQILIEQLKLFDDKLQNCKEDEQRKKIETLKETTNSMVESIKHCIVLLQIAKDQSNAEKHADGMISTINPVDAIYQPSPLEPVISTMPSQTVLPPEPVQLCKSEQRPSSLPVGPVLATLGHHQTPTPNSTGSGHSPPSSSLTSPSHVNLSPNTVPEFSYSSSEDEFYDADEFHQSGSSPKRLIDSSGSASVLTHSSSGNSLKRPDTTESLNSSLSNGTSDADLFDSHDDRDDDAEAGSVEEHKSVIMHLLSQVRLGMDLTKVVLPTFILERRSLLEMYADFFAHPDLFVSISDQKDPKDRMVQVVKWYLSAFHAGRKGSVAKKPYNPILGEIFQCHWTLPNDTEENTELVSEGPVPWVSKNSVTFVAEQVSHHPPISAFYAECFNKKIQFNAHIWTKSKFLGMSIGVHNIGQGCVSCLDYDEHYILTFPNGYGRSILTVPWVELGGECNINCSKTGYSANIIFHTKPFYGGKKHRITAEIFSPNDKKSFCSIEGEWNGVMYAKYATGENTVFVDTKKLPIIKKKVRKLEDQNEYESRSLWKDVTFNLKIRDIDAATEAKHRLEERQRAEARERKEKEIQWETRLFHEDGECWVYDEPLLKRLGAAKH

binding [5]: binds
B4: STAMBPL1 (protein, UniProt Q96FJ0 1-436)
chain: MDQPFTVNSLKKLAAMPDHTDVSLSPEERVRALSKLGCNITISEDITPRRYFRSGVEMERMASVYLEEGNLENAFVLYNKFITLFVEKLPNHRDYQQCAVPEKQDIMKKLKEIAFPRTDELKNDLLKKYNVEYQEYLQSKNKYKAEILKKLEHQRLIEAERKRIAQMRQQQLESEQFLFFEDQLKKQELARGQMRSQQTSGLSEQIDGSALSCFSTHQNNSLLNVFADQPNKSDATNYASHSPPVNRALTPAATLSAVQNLVVEGLRCVVLPEDLCHKFLQLAESNTVRGIETCGILCGKLTHNEFTITHVIVPKQSAGPDYCDMENVEELFNVQDQHDLLTLGWIHTHPTQTAFLSSVDLHTHCSYQLMLPEAIAIVCSPKHKDTGIFRLTNAGMLEVSACKKKGFHPHTKEPRLFSICKHVLVKDIKIIVLDLR
